Experimental data published in the supplement of paper PMC8728848.
This is one part of the list.

Legend:
Experiment in all cases: glycan array binding signal (z-score within array); higher = stronger binding
Conditions in all cases: glycan notation: IUPAC condensed, linker removed
[1] = target: Neu5Ac(a2-6)GlcNAc(b1-4)GlcNAc(b1-4)GlcNAc
Procedure, shortened: (§1)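 Glycan array data came from 3228 arrays in the Consortium for Functional Glycomics database, and only arrays with an available protein sequence were kept. Glycan names were put into IUPAC-condensed notation, and columns mapping to the same glycan were averaged. The binding signal is a within-array Z-score, averaged across arrays of one protein sequence run at different concentrations or buffers and across linkers. A negative Z-score can be read as non-binding.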

[2] = target: Neu5Ac(a2-8)Neu5Ac
Procedure, shortened: as §1

[3] = target: Neu5Ac(a2-8)Neu5Ac(a2-3)Gal(b1-3)GalNAc(b1-4)[Neu5Ac(a2-3)]Gal(b1-4)Glc
Procedure, shortened: as §1

[4] = target: Neu5Ac(a2-8)Neu5Ac(a2-3)Gal(b1-3)GalNAc(b1-4)[Neu5Ac(a2-8)Neu5Ac(a2-3)]Gal(b1-4)Glc
Procedure, shortened: as §1

[5] = target: Neu5Ac(a2-8)Neu5Ac(a2-3)Gal(b1-4)Glc
Procedure, shortened: as §1

[6] = target: Neu5Ac(a2-8)Neu5Ac(a2-3)Gal(b1-4)GlcNAc
Procedure, shortened: as §1

[7] = target: Neu5Ac(a2-8)Neu5Ac(a2-3)[Gal(b1-3)GalNAc(b1-4)]Gal(b1-4)Glc
Procedure, shortened: as §1

[8] = target: Neu5Ac(a2-8)Neu5Ac(a2-3)[GalNAc(b1-4)]Gal(b1-4)Glc
Procedure, shortened: as §1

[9] = target: Neu5Ac(a2-8)Neu5Ac(a2-8)Neu5Ac
Procedure, shortened: as §1

[10] = target: Neu5Ac(a2-8)Neu5Ac(a2-8)Neu5Ac(a2-3)Gal(b1-4)Glc
Procedure, shortened: as §1

[11] = target: Neu5Ac(a2-8)Neu5Ac(a2-8)Neu5Ac(a2-3)[Gal(b1-3)GalNAc(b1-4)]Gal(b1-4)Glc
Procedure, shortened: as §1

[12] = target: Neu5Ac(a2-8)Neu5Ac(a2-8)Neu5Ac(a2-3)[GalNAc(b1-4)]Gal(b1-4)Glc
Procedure, shortened: as §1

[13] = target: Neu5Ac(a2-8)Neu5Ac(a2-8)Neu5Ac(a2-8)Neu5Ac(a2-3)[GalNAc(b1-4)]Gal(b1-4)Glc
Procedure, shortened: as §1

[14] = target: Neu5Ac(a2-8)Neu5Gc(a2-3)Gal(b1-4)GlcNAc
Procedure, shortened: as §1

[15] = target: Neu5Ac(b2-6)Gal(b1-4)GlcNAc
Procedure, shortened: as §1

[16] = target: Neu5Ac(b2-6)GalNAc
Procedure, shortened: as §1

[17] = target: Neu5Ac9Ac(a2-3)Gal(b1-3)GlcNAc
Procedure, shortened: as §1

[18] = target: Neu5Ac9Ac(a2-3)Gal(b1-4)GlcNAc
Procedure, shortened: as §1

[19] = target: Neu5Ac9Ac(a2-6)Gal(b1-4)GlcNAc
Procedure, shortened: as §1

[20] = target: Neu5Gc(a2-3)Gal(b1-3)GlcNAc
Procedure, shortened: as §1

[21] = target: Neu5Gc(a2-3)Gal(b1-3)[Fuc(a1-4)]GlcNAc
Procedure, shortened: as §1

[22] = target: Neu5Gc(a2-3)Gal(b1-4)Glc
Procedure, shortened: as §1

[23] = target: Neu5Gc(a2-3)Gal(b1-4)GlcNAc
Procedure, shortened: as §1

[24] = target: Neu5Gc(a2-3)Gal(b1-4)GlcNAc(b1-3)Gal(b1-4)GlcNAc(b1-2)Man(a1-3)[Neu5Gc(a2-3)Gal(b1-4)GlcNAc(b1-3)Gal(b1-4)GlcNAc(b1-2)Man(a1-6)]Man(b1-4)GlcNAc(b1-4)GlcNAc
Procedure, shortened: as §1

[25] = target: Neu5Gc(a2-3)Gal(b1-4)[Fuc(a1-3)]GlcNAc
Procedure, shortened: as §1

[26] = target: Neu5Gc(a2-6)Gal(b1-4)GlcNAc
Procedure, shortened: as §1

[27] = target: Neu5Gc(a2-6)GalNAc
Procedure, shortened: as §1

[28] = target: Neu5Gc(a2-8)Neu5Ac(a2-3)Gal(b1-4)GlcNAc
Procedure, shortened: as §1

[29] = target: Neu5Gc(a2-8)Neu5Gc(a2-3)Gal(b1-4)GlcNAc
Procedure, shortened: as §1

[30] = target: Neu5Gc(a2-8)Neu5Gc(a2-3)Gal(b1-4)GlcNAc(b1-3)Gal(b1-4)GlcNAc
Procedure, shortened: as §1

[31] = target: Neu5Gc(a2-8)Neu5Gc(a2-6)Gal(b1-4)GlcNAc
Procedure, shortened: as §1

[32] = target: Neu5Gc(b2-6)Gal(b1-4)GlcNAc
Procedure, shortened: as §1

B1: AFCNVH (Aspergillus fumigatus) (protein)
chain: MSLRGFHTTCDTIVLKDKHILSSRCKRPDGTYSFSEIDLNDCLGNNNGKFVWGGESFVDSASQVNLALEGGEGRPMLHAQLNDWHGSVQSASVNLGECIQNEAGGLEYMHC
- glycan array binding signal (z-score) [1]: 3.29
- glycan array binding signal (z-score) [2]: -0.354
- glycan array binding signal (z-score) [3]: -0.287
- glycan array binding signal (z-score) [4]: -0.075
- glycan array binding signal (z-score) [5]: -0.371
- glycan array binding signal (z-score) [6]: -0.227
- glycan array binding signal (z-score) [7]: -0.427
- glycan array binding signal (z-score) [8]: -0.432
- glycan array binding signal (z-score) [9]: -0.35
- glycan array binding signal (z-score) [10]: -0.451
- glycan array binding signal (z-score) [11]: -0.421
- glycan array binding signal (z-score) [12]: -0.465
- glycan array binding signal (z-score) [13]: -0.425
- glycan array binding signal (z-score) [14]: -0.48
- glycan array binding signal (z-score) [15]: -0.452
- glycan array binding signal (z-score) [16]: -0.314
- glycan array binding signal (z-score) [17]: -0.434
- glycan array binding signal (z-score) [18]: 0.108
- glycan array binding signal (z-score) [19]: -0.359
- glycan array binding signal (z-score) [20]: -0.397
- glycan array binding signal (z-score) [21]: -0.246
- glycan array binding signal (z-score) [22]: -0.447
- glycan array binding signal (z-score) [23]: -0.375
- glycan array binding signal (z-score) [24]: -0.488
- glycan array binding signal (z-score) [25]: -0.365
- glycan array binding signal (z-score) [26]: -0.309
- glycan array binding signal (z-score) [27]: -0.446
- glycan array binding signal (z-score) [28]: -0.215
- glycan array binding signal (z-score) [29]: -0.534
- glycan array binding signal (z-score) [30]: -0.325
- glycan array binding signal (z-score) [31]: -0.231
- glycan array binding signal (z-score) [32]: -0.495
